# Reference: PubChem BioAssay AID493208 (National Center for Advancing Translational Sciences (NCATS), 2011)
# The whole screen tested about 44,000 compounds, of which about 340 (0.77%) were called active. Not shown: some 5% with an inconclusive outcome. The call rests on the fitted dose curve; in most records, active means well fitted inhibition curve with a large enough effect; inconclusive means small, poorly fitted or top-dose-only effect; inactive means flat fitted curve, though single readings scatter. The list shows a part of the results.
# Assay: Acumen qHTS Assay for Inhibitors of the mTORC1 Signaling Pathway in MEF (Tsc2-/-, p53-/-) Cells: Sytravon;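 further: plate controls were DMSO for no effect and rapamycin for full effect; nearly all actives have a fitted effect of over 50% in size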
# Conditions: phospho-rpS6 immunofluorescence/PI, 24 h; series mostly up to 38.3 µM; activity change, negative = inhibition: at the top concentration
# In short: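 Read-out: phospho-S6 Alexa-488 intensity over PI intensity per well, scored as % active cells using thresholds from rapamycin (7.5 nM) and DMSO controls. Tsc2-/-, p53-/- MEFs exposed to compound for 24 h; PI cell count recorded as viability.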
row,SMILES,"activity change, negative = inhibition"
1,CC(C)CC(=O)NC1CC(=O)N(c2ccc3c(c2)OCCO3)C1 (configuration not stated),inactive: -8.83%
2,CCCCNC(=O)CSc1nc2cc3c(cc2c(=O)n1CCCC(=O)NCc1ccc(OC)cc1)OCO3,inactive: 0.0373%
3,CN(Cc1ccccc1)c1nc2c(S(=O)(=O)c3cccc(Cl)c3)nnn2c2ccsc12,inactive: -0.234%
4,CCC1CN(S(=O)(=O)c2cc(-c3cc(C)no3)ccc2OC)c2cc(Cl)ccc2O1 (configuration not stated),inactive: -8.8%
5,COC(=O)c1ccccc1NC(=O)NCc1ccc2c(c1)CCN2C(=O)c1ccccc1,inactive: -16.7%
6,O=C1CN(C(=O)c2ccc(S(=O)(=O)N3CCCC3)cc2)C(c2ccc(F)cc2)c2cc(Br)ccc2N1 (configuration not stated),inactive: -16.4%
7,O=S(=O)(NCCc1csc2nc(-c3ccc(Cl)cc3)nn12)c1cccs1,inactive: -15.6%
8,Cc1ccc2c(c1)N(C(=O)N1CCC(C(=O)Nc3cccc(F)c3)CC1)CCO2,inactive: 13.5%
9,O=c1c2oc3ccccc3c2n(Cc2ccccc2Cl)c(=O)n1Cc1ccc2c(c1)OCO2,inactive: 3.4%
10,CCc1ccccc1NC(=O)CN(c1cc(C(F)(F)F)ccc1Cl)S(=O)(=O)c1ccccc1,inactive: -8.83%
11,COc1cc(Nc2nc3c(S(=O)(=O)c4ccccc4)nnn3c3ccc(Cl)cc23)cc(OC)c1,inactive: -0.3%
12,Cc1ccc2c(c1)N(C(=O)CCC(=O)NCc1ccccc1F)CC(C)O2 (configuration not stated),inactive: -9.14%
13,O=C(COc1ccc(Cl)cc1)OCc1cc(=O)n2nc(C3CCCCC3)sc2n1,inactive: 0%
14,Cc1cc(C)cc(NC(=O)[C@H]2O[C@@H]3OC(C)(C)O[C@@H]3[C@H]3OC(C)(C)O[C@H]32)c1,inactive: -2.1%
15,CCOC(=O)c1ccc2c(c1)N(Cc1cc(C)ccc1C)C(=O)c1ccccc1S2(=O)=O,inactive: -2.97%
16,Cc1ccccc1C(=O)N1CCC(c2nc(-c3ccc(S(=O)(=O)N4CCCC4)cc3)no2)CC1,inactive: 0.542%
17,Cc1ccsc1CN(Cc1ccco1)c1cnc(S(C)(=O)=O)nc1C(=O)Nc1ccc(Cl)cc1,inactive: -1.21%
18,Cn1c(=O)oc2cc(S(=O)(=O)CCC(=O)NCc3ccc(Cl)cc3)ccc21,inactive: 8.96%
19,Clc1cccc(Nc2ncnc3c2nc2n3CCCCC2)c1,inactive: -7.87%
20,Cc1ccc(NC(=O)N2CC=C(c3c[nH]c4ccccc34)CC2)cc1Cl,inactive: -14.5%
21,CC1CCN(C(=O)CN2CC(C)Sc3ccccc32)CC1 (configuration not stated),inactive: 0.402%
22,COc1ccc(-c2cn3nc(SCC(=O)Nc4cccc(C)c4C)ccc3n2)cc1,inactive: -17.9%
23,CCOCCn1ccc2c(OCC(=O)Nc3cc(C)cc(C)c3)cccc2c1=O,inactive: -0.904%
24,Cc1ccc(NS(=O)(=O)c2ccc(-n3cccn3)cc2)c(Br)c1,inactive: 2.24%

row,SMILES,"activity change, negative = inhibition"
1,Cc1cccc(C(=O)Nc2ccc(OCc3cc(=O)n4ccc(C)cc4n3)cc2)c1,inactive: -0.843%
2,COc1ccc(Nc2nc3ccccc3n3c(N)nnc23)cc1,inactive: -8.21%
3,CCCCN(C)C(=O)CCC(=O)NNc1nc2ccccc2c2nc(C)nn12,inactive: -5.64%
4,CCC(Nc1ccc(-c2nc(-c3ccccn3)no2)cc1[N+](=O)[O-])c1ccccc1 (configuration not stated),inactive: -3.88%
5,COc1cc2c(cc1OC)C(COc1cc(C)cc(C)c1)N(C(=O)C(C)(C)C)CC2 (configuration not stated),inactive: 4.9%
6,Cc1cccc(N2CCn3c2nc2c3c(=O)n(CCCc3ccccc3)c(=O)n2C)c1,inactive: -3.39%
7,COc1cc2c(C(=O)N(C)c3cccc(C(F)(F)F)c3)cn(CC(C)C)c(=O)c2cc1OC,inactive: -16.4%
8,Cc1oc(-c2cccc(Cl)c2)nc1Cn1c(SCc2ccc(F)cc2)nc2cccnc21,inactive: -6.66%
9,Cc1ccc(C(c2sc3nc(-c4ccco4)nn3c2O)N2CCN(c3ccc(F)cc3)CC2)cc1 (configuration not stated),inactive: 0.317%
10,O=C(CCCCCn1c(=O)c2sccc2n(CC(=O)Nc2ccccc2F)c1=O)NCc1ccc2c(c1)OCO2,inactive: -13.9%
11,CCC(C)OC(=O)/C(C#N)=C/c1ccc(-c2ccc(Br)cc2)o1 (configuration not stated),inactive: 9.76%
12,COc1cc(CN(C(=O)COc2ccccc2)c2ccccn2)cc(OC)c1OC,inactive: -0.563%
13,Cc1ccc(C2CC(=O)Nc3c2c(C)nn3-c2nc(C)cc(C)n2)c(C)c1 (configuration not stated),inactive: -2.36%
14,Cc1cc2n(n1)CCCN2C(=O)Nc1ccccc1C(F)(F)F,inactive: 1.88%
15,COC(=O)CN1C(=O)CSc2ccc(S(=O)(=O)Nc3ccc(C)c(Cl)c3)cc21,inactive: 1.02%
16,O=C(Cc1ccc(-c2ccccc2)cc1)NCCS(=O)(=O)N1CCN(c2ccccc2F)CC1,inactive: 0%
17,COc1cccc(NC(=O)C2CCCN(c3ncnc4onc(C)c34)C2)c1 (configuration not stated),inactive: 4.06%
18,O=C(Nc1ccccc1C(=O)N1CCCCC1)c1nsc2ccccc12,inactive: 0%
19,CCCCCOc1ccc(/C=C/C(=O)Nc2sc3c(c2C(=O)OCC)CCC3)cc1OC,inactive: 3.75%
20,CNC(=O)c1cnc2sc(N3CCC(C)CC3)nn2c1=O,inactive: -3.5%
21,COc1ccc(NC(=O)CNC(=O)Cn2ccc3ccccc3c2=O)cc1OC,inactive: -3.36%
22,O=C(Nc1ccc(F)c(F)c1)c1cc(S(=O)(=O)NC2CCCC2)ccc1F,inactive: 0%
23,Cc1cccc(N2CCN(CCCNc3ncnc4onc(-c5ccc(F)cc5)c34)CC2C)c1 (configuration not stated),inactive: -9.43%
